Measured values published in the supplement of paper PMC11417369.
± gives the standard deviation of the averaged measurements. This is one part of the list.

The sequences below were run on PfAP2-EXP AP2 domain (GST-tagged) (assay: gcPBM binding intensity (ln(normalized median fluorescence intensity)); higher = stronger DNA binding).
Method in brief: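 Binding intensity values are the highest Masliner-normalised natural-log median intensity among replicate spots of either probe orientation. The binding step lasted 1 h in 1× PBS with 1% milk, 0.2 mg/ml BSA, 0.5% salmon testes DNA and 0.03% Triton X-100, using GST-tagged P. falciparum DNA-binding domains expressed in E. coli on an Agilent 4 × 180k array of primer-extended double-stranded 36-bp intergenic genomic probes plus negative controls. Alexa488 anti-GST antibody and a 488 nm scan detected bound protein.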

Row | Sequence | gcPBM binding intensity (ln)
1 | TATAAAAATAATATTACACACATGTAAAATGGCTGT [CACACA_site5755] | 8.38 ± 0.34
2 | ATATATGCATATTATACACACATATGTATATACATT [CACACA_site965] | 8.84 ± 0.46
3 | AAACTGTCGCTCATAAAGAAGAATGAAATACATTAA [TGCATGCA_negctrl_site60] | 8.37 ± 0.4
4 | ACCCATGATTGTTACAGTACTCTACTTTCTAATATA [XGTACX_site98] | 8.96 ± 0.46
5 | TGGAGGTCAGTTCACAGTACCCAGGAAATCTACGGA [XGTACX_site1995] | 8.61 ± 0.5
6 | AAAAAAAAAAAAAATGCACACAATGGCTAGCTGTAC [CACACA_site2273] | 8.595 ± 0.078
7 | TTTTCTGTATATTGTGTGCACACAATTAACAAAAAA [GTGCAC_site9817] | 8.7 ± 0.16
8 | ATATTGACAAATATTACACACATATATAAATATGTA [CACACA_site7835] | 8.22 ± 0.47
9 | CCATAGATATTTTATACACACATATAACATATTAAT [CACACA_site6312] | 8.55 ± 0.52
10 | ATATAATATTACACAAGTACAAAAATTAATACTAAA [XGTACX_site482] | 8.39 ± 0.32
11 | ATTTATTTTAATATATGTACATATATTTTTTTATTA [XGTACX_site3389] | 8.55 ± 0.26
12 | ATTTGAAATGCATGAACACACACAGCTATAAATGCA [CACACA_site8229] | 8.71 ± 0.3
13 | CGTTATTATCCACATACACACAGGAATAAAAAATTA [CACACA_site2883] | 8.7 ± 0.61
14 | TAGTAATATATATTTTGTACATAAAATAATATATAA [XGTACX_site7971] | 8.35 ± 0.35
15 | TATATATGTTAAAACGTGCACATATATATATATATA [GTGCAC_site9589] | 10.2 ± 0.21
16 | ATAAAATATAAAAAAAGTACAAAAAAAAAAAAAAAA [XGTACX_site6657] | 8.1 ± 0.51
17 | AAAAAAAAATACATATGTACATATACATATATATAT [XGTACX_site2975] | 9.55 ± 0.2
18 | ATATTATATAAATATACACACATTGTTTTATAGCAT [CACACA_site2386] | 8.51 ± 0.42
19 | ATATATTTAATTTATGGTACACATAATTTTTTTAGA [XGTACX_site848] | 8.38 ± 0.33
20 | TATATATATATATATACACACATATATATAAATATA [CACACA_site2035] | 10.2 ± 0.26
21 | TTAAAAAAAAGACACACACACATACACATATTTATA [CACACA_site7535] | 8.7 ± 0.47
22 | CACAAAAGTAAGCACGCACACACAACCTGAAATAAA [CACACA_site166] | 8.7 ± 0.45
23 | AAAAGAAAATAAGAAACACACAAAAATATGTAAAAA [CACACA_site7694] | 8.62 ± 0.44

Row | Sequence | gcPBM binding intensity (ln)
24 | ATTTTTATATAATGAACACACATATTATATCATTTA [CACACA_site1572] | 8.35 ± 0.41
25 | TTAGTCATATATATATGTACACACATATATATATTT [XGTACX_site2948] | 8.35 ± 0.26
26 | GAACATACTCAAATAGCACACACATAAATAAAAATG [CACACA_site9283] | 8.89 ± 0.56
27 | AAAATCCACATTTTAGTACACACTTAAAAAATTATT [CACACA_site2955] | 8.38 ± 0.19
28 | TATATATATATAATATGTACATATAATCAACATTTT [XGTACX_site3915] | 9.68 ± 0.27
29 | TTATATATATATATATGTACGAAAAAGAAAAAAAAG [XGTACX_site6761] | 8.78 ± 0.56
30 | AAATGAGTATTCATATGTACACAAATAAAAAATTAA [XGTACX_site2968] | 8.61 ± 0.28
31 | ATGGAAGGAAACAATAAAAAAAAAAAAAAATATATA [XGTACX_negctrl_site594] | 8.53 ± 0.45
32 | AATGACAACCTTGTCACACATATATATATATATATA [CACACA_site5977] | 10.2 ± 0.4
33 | TTTTTTATTTGACAAGCACACACTTAAATATATATA [CACACA_site3358] | 8.52 ± 0.38
34 | CATTTAAAGGACAAGCTGCACTTACAAAATAAAAAA | 8.54 ± 0.3
35 | ATCTTTGGAAATTTATGTACTTATATTTATATTGTA [XGTACX_site6606] | 8.54 ± 0.26
36 | ATTTCTAGTTTAAGATGTACTTTAATAAAAATTATT [XGTACX_site4820] | 8.45 ± 0.33
37 | AAATATCAACAAAAATGTACAAATGTAAAAGAATAT [XGTACX_site4676] | 8.88 ± 0.4
38 | TTTTTTTTTTAATAAAGTACATATAAATTACCTAAT [XGTACX_site4434] | 8.06 ± 0.31
39 | ACTATACAGTTATACACACACATATATATATAATAT [CACACA_site310] | 8.86 ± 0.31
40 | AGGTTAAAAATAAATACACACATTTTATGTCTGTAT [CACACA_site996] | 8.23 ± 0.45
41 | TATATATATATTGAAGTGCAAAATACTGTACGTAAT | 9.56 ± 0.2
42 | AAAAGAATATAAAGATACATTGTGATATGGGACAAA [CACACA_negctrl_site405] | 8.81 ± 0.47
43 | GAAATAATTTCATATACACACATATACATACATACA [CACACA_site1358] | 8.94 ± 0.21
44 | TATATATATATAAACAGTACACAAATTGTAAATAAA [XGTACX_site8268] | 9.68 ± 0.071
45 | TTAATTCTACTTATTACACACATATTAATCAAAAAT [CACACA_site1478] | 8.46 ± 0.43
46 | TATATATATATATATATTGAAATTTATAATAATATT [TGCATGCA_negctrl_site407] | 10 ± 0.36

Row | Sequence | gcPBM binding intensity (ln)
47 | ATTTTTTTATGTACACAAAAAAAAAAAAAAATTTAA [CACACA_negctrl_site1028] | 8.57 ± 0.34
48 | AAATATTTATACTATACACACCCAATTTAAAAAAAA [CACACA_site6669] | 8.69 ± 0.35
49 | AACATAGAAACGTTATGTACATATTGAAGGATATTA [XGTACX_site6015] | 8.94 ± 0.38
50 | ATATTATAATTAAAACGTACGTATTTATGAATTCAT [XGTACX_site1047] | 8.84 ± 0.4
51 | TATTAATTAAACCATACACACATAATTTTTTTATAA [CACACA_site843] | 8.21 ± 0.43
52 | TACATAAATTAAAACACACACACACTAAAAAAAAAA [CACACA_site7130] | 8.64 ± 0.36
53 | GTTAATATTTACTACACACACTTAAAATATGTATAT [CACACA_site4194] | 8.63 ± 0.34
54 | TTTTCATTTTTCTTTACACACATATATTTATTTATA [CACACA_site7119] | 8.94 ± 0.4
55 | AAGGTATTTATAACTACACACTTATTTATAACCTAA [CACACA_site6194] | 8.22 ± 0.38
56 | TATACCAATGAATGAGTGCAAAGAAGATAAGGAAAA | 9.16 ± 0.34
57 | ACTTATTGTGGTTTTGCATGTAGCATTTTTACATAC [TGCATGCA_site247] | 9.26 ± 0.36
58 | AATAAAATGAAATGAAATAAAAAAAAAAAAAAAATG [TGCATGCA_negctrl_site305] | 8.28 ± 0.63
59 | AAAAAAAAAAAAAAATTAAAGTAATGGAAAAAAAAA [CACACA_negctrl_site1666] | 8.3 ± 0.61
60 | TATATTATAAACATATGTACATATGTATAAATACAT [XGTACX_site722] | 8.56 ± 0.3
61 | AACATATATATATACACACACATATATATATGAAAT [CACACA_site279] | 8.68 ± 0.35
62 | ATTATTAATATTATATGTACGCACTATATCAAGGCT [XGTACX_site6468] | 8.68 ± 0.29
63 | ACGATGCATTAATCTGCACACCACAACAAAACGTTT [CACACA_site899] | 8.85 ± 0.25
64 | AATCATTTTATTATCCTAACAAAAAAAAAATATATT [CACACA_negctrl_site115] | 8.04 ± 0.45
65 | ACAACGCGTTAAATGTGTACATATTTATAAGTATAT [XGTACX_site8777] | 8.71 ± 0.42
66 | AGCTATGTATTCTACACACACATACAGACATATATA [CACACA_site3428] | 8.72 ± 0.38
67 | TTTGCATTTCTTAATTGTACTTAAAAAAAAAATAAT [XGTACX_site758] | 8.28 ± 0.38
68 | TACACGCTAAAATACACACACACACCCACATATATA [CACACA_site4153] | 8.57 ± 0.49
69 | TTCCCTCCTCAAAATTGTACTAGAATAATAACATAA [XGTACX_site8765] | 8.5 ± 0.51

Row | Sequence | gcPBM binding intensity (ln)
70 | TTTTTTAAACATATTATGTGTATTACATAGTTATGC [XGTACX_negctrl_site596] | 8.15 ± 0.26
71 | TTATTATATTAAAATTGTACTTGCTTTCAATATGAT [XGTACX_site5305] | 8.23 ± 0.35
72 | TTATAATATTATAAAATAACATTTATTAATTATTGG [CACACA_negctrl_site1794] | 8.34 ± 0.55
73 | TAAACGTTATATAGTGCATGTCATATTTTATTATAT [TGCATGCA_site935] | 8.68 ± 0.26
74 | TTCCAAAAAATTATTACACACATATGGGCACATATA [CACACA_site679] | 8.38 ± 0.32
75 | TATACATACATACATACACACACACCGATATATACA [CACACA_site8184] | 8.78 ± 0.42
76 | AATGTTATTTGTTTATCACACATTAGGATGTTTATA [CACACA_site5710] | 8.46 ± 0.27
77 | TATAAAATTAAACAAAGTACTAGACATATATATAGA [XGTACX_site3247] | 8.77 ± 0.39
78 | ATTCTATAATATAAGAGTACTTATTTTTTTTAATTT [XGTACX_site7671] | 8.28 ± 0.26
79 | TGCCTATTTTGGATGTGTACACATATATATATTTAT [XGTACX_site6741] | 8.88 ± 0.42
80 | ACAAAAAAACATGAAACACACACAAATATATATATA [CACACA_site8566] | 9.68 ± 0.27
81 | TGTTTCTGCTCTGGACATTTTTAAAAAAGGGAAAGC [CACACA_negctrl_site1463] | 8.75 ± 0.41
82 | ACGCTAATTATGTGCACACAAATTAAAGGTCTACAA [CACACA_site147] | 8.95 ± 0.25
83 | AAAAAAAAAAAAAACACACACACAAGAGTATATAAA [CACACA_site6580] | 8.5 ± 0.62
84 | TTATATATTTTTTTTTGTACATAGAAGAGGGAAAAA [XGTACX_site2178] | 8.66 ± 0.27
85 | ATGAATTTATTACATTGTACATTTTTAAAAGGTTAC [XGTACX_site124] | 8.45 ± 0.42
86 | ACAAGGAATATATAAGATAATTTTAAATATAACACG [CACACA_negctrl_site1734] | 8.57 ± 0.36
87 | ATATATATAATTTTTACACACGCAATAAATATATAT [CACACA_site218] | 8.55 ± 0.43
88 | TTATAATAAAGAGGAGTGCAAAAAAAAAAAAAAAAA | 8.34 ± 0.37
89 | AATCAAAATATATCTACACACATTTAAGTAACACAT [CACACA_site3482] | 8.54 ± 0.4
